Assay results published in ChEMBL document CHEMBL4888484, “Replenishing the malaria drug discovery pipeline: Screening and hit evaluation of the MMV Hit Generation Library 1 (HGL1) against asexual blood stage Plasmodium falciparum ,using a nano luciferase reporter read-out” (2022).
In all, about 150,000 compounds went through this assay and about 540 (0.36%) showed an effect of 50% or more. This is one part of the list.

System: Plasmodium falciparum
Assay: Primary screen in NF54 nanoGlo assay, in single point, at 2uM, 72h; a lower Z score goes with more inhibition
Type: functional, Erythrocyte
Details: timepoint 72 hour

Structure (SMILES)	% Inhibition [%]	Z score
COc1cc(NS(=O)(=O)c2ccc3c(c2)OC[C@@H](C(=O)N2CCCC2)O3)cc(OC)c1	-12	2.04
N#CCN[C@@H](CC(N)=O)C1CCCCC1	-2	0.33
CC(c1ccccc1)N1C(=O)C2C3CCC(C3)C2C1=O (centres undefined)	-14	1.77
COc1ccc(C(=O)NCCNC(C)=O)cc1OC	-3	0.3
C#CCN1CCC[C@H](NC(=O)OC(C)(C)C)C1	1	-0.1
Cc1c(CNC(=O)C2(N3CCCCC3)CCCCC2)cnn1C	8	-1.06
Cc1cnn(CCC(=O)N2CCC[C@H](c3nc4c(C)cccc4[nH]3)C2)c1	-10	1.83
Cn1cc(-c2nc([C@@H]3COCCN3Cc3cccc4cccnc34)no2)cn1	-7	0.88
Cc1cc(C)nc(NCC(=O)Nc2nc(CC(C)C)n[nH]2)n1	-8	1.1
Cc1cnc(C2CC2)n1C[C@H]1CCN(C(=O)c2ccc3ccccc3n2)C1	-10	1.32
C[C@H]1CN(S(=O)(=O)c2ccc(NC(=O)c3ccccc3)cc2)c2ccccc2O1	6	-0.79
CCC(C)C(C)Nc1ccc(C)c(C(N)=O)c1 (centres undefined)	-10	0.97
Cc1cc(N2CCCN(C(=O)COc3ccccc3)CC2)nc(N)n1	-1	0.17
Cc1csc(C(C)CN2C(=O)N3CCC[C@@]3(C)C2=O)n1 (some centres undefined)	-6	0.53
Cn1nc(C2CC2)cc1C(=O)NC[C@H]1CCC2(CCOCC2)CO1	-4	0.56
CC(=O)[C@@](C)(O)CN1CCc2c(ncn2-c2ccc(F)cc2)C1	-11	1.72
O=C(NCCN1CCC[C@H](CO)C1)c1cccc(-c2ncccc2Cl)c1	-5	0.49
O=C(Cn1ncc2c([nH]c3ccccc32)c1=O)Nc1ccc2c(c1)OCCO2	2	-0.27
COc1ccc(S(=O)(=O)N2CCOCC2)cc1C(=O)N1CCC(CN2CC(C)OC(C)C2)CC1 (centres undefined)	-6	0.75
O=C(NCC[C@H]1CCOC1)c1cccc(OC(F)F)c1	1	-0.14
CN[C@H]1CCCN(C(=O)c2cccc(-n3ccc(C(F)(F)F)n3)c2)C1	-9	1.24

Structure (SMILES)	% Inhibition [%]	Z score
CCCc1cc(C(=O)OCCc2c(C)nn(C)c2C)[nH]n1	-8	1.59
O=C(NC1CC1)N1CCS(=O)(=O)C[C@H]1c1ccccc1	-9	1.81
CC(C)(CCCNc1ncc(Br)cn1)C1OCCO1	-23	2.07
Cc1ccc(C(=O)N2CCC(N3C(=O)[C@H]4CCCN4C3=O)CC2)cc1	29	-0.25
O=C(O)C1CC2CCCCC2N1Cc1ccc(F)c(F)c1 (centres undefined)	-7	0.69
O=C(COc1cccc(-n2cncn2)c1)N[C@H](c1ccccc1)C1CC1	-9	1.04
O=C(NCc1ccc(N2CCCC2=O)cc1)C1CCCC1	-13	1.78
CCOC(=O)NCCC(=O)N1CCOC2CCCC21 (centres undefined)	10	-1.31
COCCN(CCC(=O)NCc1ccccc1)c1nc(C2CC2)nc2cc(Cl)ccc12	-6	0.67
CNC(=O)[C@@H](NCc1ccc2nc(C)ccc2c1)C(C)C	11	-1.17
COc1ccc(C(=O)NC[C@H]2O[C@@H](CO)[C@@H](O)[C@H]2N(C)CCc2ccccc2)cc1	9	-1.03
CC1CC(NC(Cc2ccccc2)CN2CCOCC2)CC(C)O1 (centres undefined)	-5	0.66
O=C(Nc1ccc2ccccc2c1)[C@@H]1CCCO1	-36	4.28
CCC(CC)C(=O)Nc1cc(C)ccc1C	-3	0.5
CNC(=O)NC[C@H]1COCCN1Cc1coc(C(C)(C)C)n1	-3	0.59
CCc1nc(N)nc(N2CCC[C@H](O)CC2)c1C	-1	0.11
COc1cccc(C2=CCN(C(=O)Cn3nc(C)c4cccnc43)C2)c1	-10	1.49
CN(CCCc1cnn(C)c1)c1cc(C2CC2)ncn1	-1	0.18
CC[C@H](C)N(CC(=O)N1CCN(c2ccc(-c3cccc(OC)c3)nn2)CC1)C(=O)c1cccs1	-9	1.27
Cn1cc(C(=O)NCc2noc(C3CC3)n2)cn1	-4	0.44
CC(C)CNC(=O)c1cc2cc(NC(=O)c3cccc(F)c3)ccc2n1Cc1cccc(F)c1	-12	1.49
